# Test results taken from PMC4336329 (PLoS ONE, 2015).
# Among all 310,000 compounds or so, about 14,000 (4.5%) showed an effect of 50% or more. The effect is printed as a negative number. Some of the results follow.
# Target: human ether-à-go-go-related gene (hERG) potassium channel (human, UniProt Q12809)
# Experiment: primary screen, population patch clamp on CHO cells stably expressing hERG
# 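Note: peak tail current of the secondary pulse compared with the same well before compound.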
# human ether-à-go-go-related gene (hERG) potassium channel, sequence (Q12809 whole entry, looked up): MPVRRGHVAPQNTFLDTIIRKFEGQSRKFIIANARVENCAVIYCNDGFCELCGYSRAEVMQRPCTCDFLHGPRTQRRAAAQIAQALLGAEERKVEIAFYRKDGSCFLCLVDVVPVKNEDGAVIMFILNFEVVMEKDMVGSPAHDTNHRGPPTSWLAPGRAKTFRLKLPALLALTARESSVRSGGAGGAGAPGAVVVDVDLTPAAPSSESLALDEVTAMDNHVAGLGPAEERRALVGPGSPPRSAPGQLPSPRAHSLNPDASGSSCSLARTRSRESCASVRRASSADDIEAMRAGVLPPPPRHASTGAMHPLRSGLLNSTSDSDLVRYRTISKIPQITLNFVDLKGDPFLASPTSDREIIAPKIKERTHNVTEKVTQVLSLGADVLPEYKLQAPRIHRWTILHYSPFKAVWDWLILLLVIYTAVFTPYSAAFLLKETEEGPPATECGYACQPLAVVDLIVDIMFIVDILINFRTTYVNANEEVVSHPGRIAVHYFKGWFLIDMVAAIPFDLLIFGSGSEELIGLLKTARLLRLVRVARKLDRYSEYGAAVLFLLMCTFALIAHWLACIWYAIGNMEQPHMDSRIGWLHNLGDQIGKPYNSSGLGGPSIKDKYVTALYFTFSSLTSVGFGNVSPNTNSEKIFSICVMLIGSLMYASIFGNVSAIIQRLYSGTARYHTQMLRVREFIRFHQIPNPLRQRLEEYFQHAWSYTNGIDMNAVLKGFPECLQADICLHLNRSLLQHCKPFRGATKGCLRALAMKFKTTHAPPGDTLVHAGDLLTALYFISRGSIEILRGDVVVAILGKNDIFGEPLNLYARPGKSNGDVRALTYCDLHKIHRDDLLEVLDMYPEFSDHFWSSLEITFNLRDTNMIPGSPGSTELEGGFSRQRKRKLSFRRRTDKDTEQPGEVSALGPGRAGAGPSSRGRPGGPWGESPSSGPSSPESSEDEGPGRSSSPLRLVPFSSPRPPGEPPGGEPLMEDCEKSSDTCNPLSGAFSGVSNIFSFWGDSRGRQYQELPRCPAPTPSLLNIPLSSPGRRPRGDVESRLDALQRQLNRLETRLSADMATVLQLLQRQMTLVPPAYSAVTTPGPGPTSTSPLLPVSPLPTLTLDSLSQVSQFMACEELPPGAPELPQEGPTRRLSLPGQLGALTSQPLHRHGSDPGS
row,Compound,"hERG current change (%, negative = inhibition) at 10uM [%]"
1,Cc1ccc2nc(-c3ccccc3N)[nH]c2c1,-4.46
2,Cc1ccc(CSc2ccc3nnc(-c4cccnc4)n3n2)cc1,-79.3
3,O=C(N/N=C/c1ccccc1C(=O)O)c1ccccc1Br,20.6
4,Cc1ccc(S(=O)(=O)N2CCN(C(=O)CN3CCCCC3)C2C(C)C)cc1 (stereo not shown),-17.6
5,COc1cc(CC(=O)Nc2ccc3nc(SC)sc3c2)cc(OC)c1OC,1.95
6,O=C1CC(c2ccc(S(=O)(=O)NCc3ccccc3)cc2)CN1 (stereo not shown),-11.9
7,Nn1c(Cc2cccc3ccccc23)nnc1SCc1ccc(Cl)c(Cl)c1,14.4
8,O=C(c1ccc(F)cc1)N1CCC(O)(c2cccnc2)CC1,0.227
9,Cc1ccc(CN2C(=O)C3CCCN3c3ccc(C#N)cc32)cc1 (stereo not shown),7.93
10,CSCCC(NC(=O)c1ccccc1)C(=O)N/N=C(\C)c1ccccc1 (stereo not shown),-11.7
11,CCN(C(=O)CSc1nncn1-c1ccccc1)c1c(N)n(Cc2ccccc2)c(=O)[nH]c1=O,5.42
12,CC(C)C[C@H](NC(=O)OC(C)(C)C)C(=O)N[C@@H](CO)[C@H](O)[C@@H]1C[C@@H]1C(=O)N1CCCC1,-15.3
13,Cc1nccn1-c1ccc(C(F)(F)F)cc1NC=O,9.37
14,CCCCN1C(=O)C2(NNc3ccccc3O2)c2ccccc21 (stereo not shown),-34.1
15,CC(=O)Nc1ccc2c(c1)N(S(=O)(=O)c1cccs1)CCC2,-3.79
16,Cc1ccc(CSC2=Nc3ccccc3C3=NC(=O)CN23)cc1,4.54
17,Cc1ccc2[nH]c(C(=O)N3CCN(c4cccc(Cl)c4)CC3)cc2c1,9.35
18,Cc1ccc2c(CC(=O)Nc3ccc(N4CCN(C)CC4)cc3C)coc2c1,-72.8
19,S=c1[nH]nc(-c2cc(-c3ccco3)[nH]n2)n1-c1ccccc1Cl,12.6
20,CSc1ccccc1NC(=O)CSCc1ccc(C)cc1,-7.79
21,C=CCn1c(SCC(=O)NC(=O)NC2CCCC2)nnc1C1CCCCC1,3.7
22,Clc1ccc(-n2ncc3c(NCc4ccc5c(c4)OCO5)ncnc32)cc1,12.7
23,CC[N+](C)(C)CC/C=C1/c2ccccc2Sc2ccc(Cl)cc21.[Br-],-25.3
24,CC(=O)N1c2ccccc2C(C)CC12CCCCC2 (stereo not shown),-1.59
25,C=C(C)Cc1c(C)c(C#N)c2[nH]c3ccccc3n2c1=O,23.2
26,COc1ccc([N+](=O)[O-])cc1NC(=O)CSc1nncn1-c1ccccc1,-14
27,Cc1ccc(/C(O)=C2/C(=O)C(=O)N(CCN3CCOCC3)C2c2cccnc2)cc1 (stereo not shown),3.93
28,C=CCOc1ccc(CN(C)Cc2nc3cc(C(F)(F)F)ccc3c(=O)[nH]2)cc1,-14.2

row,Compound,"hERG current change (%, negative = inhibition) at 10uM [%]"
1,Nc1cc(=O)nc(SCC(=O)N2CCN(c3ccccc3)CC2)n1-c1ccc(F)cc1,16.5
2,Cc1ccc(OCC(=O)N/N=C\c2ccc(-c3cccc(C(=O)O)c3)o2)c(C)c1,31.5
3,O=C(Nc1ccc(S(=O)(=O)N2CCCC2)cc1)C1CC(=O)N(c2ccc(F)cc2)C1 (stereo not shown),8
4,CCOC(=O)c1[nH]c2ccccc2c1N=CN(C)C,-28.9
5,COC(=O)c1ccccc1NC(=O)Cn1cnc2c(cnn2-c2ccc(C)c(C)c2)c1=O,8.83
6,COc1ccc(CN(C)C(=O)c2ccc(NS(=O)(=O)c3ccc(F)cc3)cc2)c(OC)c1OC,-55.6
7,COc1ccc(N2CCN(C(=O)Cn3cnc4c(cnn4-c4ccc(C)cc4)c3=O)CC2)cc1,-9.24
8,CC1CCc2c(sc3ncn(CCO)c(=O)c23)C1 (stereo not shown),14.8
9,O=C(CSc1nnc(-c2cccnc2)s1)Nc1ccc(C(=O)O)cc1,19
10,CC1=C(C(N)=O)C(c2ccccc2F)NC(=O)N1 (stereo not shown),17
11,O=C(COC(=O)c1cc(Cl)ccc1[N+](=O)[O-])Nc1cccc2ccccc12,-1.97
12,COc1ccc(-c2csc(C)n2)cc1Br,17.4
13,CCOc1ccc(N2C(=O)CC(Cc3ccc(Br)cc3)C2=O)cc1 (stereo not shown),5.77
14,COc1ccc(NC(=O)c2cc(C)cc(C)c2)cc1[N+](=O)[O-],-2.42
15,COc1ccc(C(CNC(=O)c2cccc(S(=O)(=O)Nc3ccc(C)cc3)c2)N2CCCCC2)cc1 (stereo not shown),-30.7
16,COc1ccc(C2CC(c3ccc(OC)c(OC)c3)=NN2C(=O)c2ccccc2)cc1 (stereo not shown),9.33
17,Cc1ccc(NC(=O)CSc2nsc(SCC(=O)Nc3ccc(C)cc3C)c2C#N)c(C)c1,23.2
18,O=C(NNS(=O)(=O)c1ccc(Br)cc1)C1CCCCC1,10.3
19,CCOc1ccc(Nc2ccc([N+](=O)[O-])c3nonc23)cc1,-53.9
20,COc1nc(C)ccc1-c1noc(-c2cccs2)n1,8.17
21,Cc1ccc(C)c(S(=O)(=O)N2CCN(C(=O)Cc3c(F)cccc3Cl)CC2)c1,-18.9
22,O=C(/C=C/c1ccc([N+](=O)[O-])cc1)c1ccco1,-41.5
23,CCOC(=O)C(C)Oc1ccccc1C1NC(=O)NC(C)=C1C(=O)Nc1ccc(C)c(C)c1 (stereo not shown),0.583
24,O=C(NNC(=O)c1cc2ccccc2oc1=O)c1ccccc1[N+](=O)[O-],23.2
25,COc1ccc(NC(=O)CCc2nc3ccccc3s2)c(OC)c1,-0.68
26,Cc1ccc(NC(=O)COc2ccccc2C(N)=O)cc1S(=O)(=O)N1CCCCCC1,-37.8
27,CC1CC(C)CN(C(=O)c2ccc3c(c2NCCO)C(=O)c2ccccc2C3=O)C1 (stereo not shown),-13
